# Data as given in PubChem BioAssay AID504845 (National Center for Advancing Translational Sciences (NCATS), 2011).
# Among all 390,000 compounds or so, about 150 (0.038%) were called active. This list was built around the results that the source calls inconclusive (neither active nor inactive); the mix of calls is not that of the screen. The call rests on the fitted dose curve; in most records, active means well fitted inhibition curve with a large enough effect; inconclusive means small, poorly fitted or top-dose-only effect; inactive means no such curve, though single readings can be large or run the other way. Potencies beside an inconclusive call are fits to weak or partial responses and may not hold up.
# Biological target: Regulator of G-protein signaling 4 (Homo sapiens) (UniProt P49798)
# Sequence of UniProt P49798 (P49798 whole entry, looked up): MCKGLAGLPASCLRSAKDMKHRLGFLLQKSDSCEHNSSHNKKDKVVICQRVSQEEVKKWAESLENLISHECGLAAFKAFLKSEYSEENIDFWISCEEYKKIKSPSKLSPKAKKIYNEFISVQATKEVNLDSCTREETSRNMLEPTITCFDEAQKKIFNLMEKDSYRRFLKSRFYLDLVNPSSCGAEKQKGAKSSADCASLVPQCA
# Assay: Inhibitors of Regulator of G Protein Signaling (RGS) 4: qHTS; further: nearly all actives have a fitted effect of over 75% in size
# Conditions: Transcreener GDP fluorescence polarization, RGS4-accelerated GTP hydrolysis; series mostly up to 114 µM
# Method in brief: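 MLSMR compounds (23 nl, pin-transferred) preincubated 10 min at room temperature with a 500nM (2x) first reagent, then RGS4 at 900nM (2x) plus Transcreener GDP mix added; fluorescence polarization (620/688 nm) read before and after 90 min at 30 °C.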
# On the % scale 0 is the no-effect control and ±100 the full control effect; potency means the concentration at half of the fitted maximal effect; tags describe the fitted curve by direction and shape.
Compound,Potency,"activity change, negative = inhibition"
O=C(CCCn1c(=S)[nH]c2cc3c(cc2c1=O)OCO3)N1CCN(c2ccccc2F)CC1,inactive,
N#Cc1c(/N=C\c2ccc(O)c([N+](=O)[O-])c2)sc2c1CCCC2,"inconclusive: 50.1 µM [inhibitor, partial curve, poor fit]",
Cc1coc2c(O)cc3c(c12)OC1(N2CCCCC2)C(=O)NCCCC31 (stereo not given),"inconclusive: 44.7 µM [inhibitor, partial curve, poor fit]",
O=C(O)c1cccc(N2C(=O)c3cccc4c(Cl)ccc(c34)C2=O)c1,inactive,
O=C(N/N=C/c1ccc(N2CCOCC2)o1)c1cccc(C(F)(F)F)c1,"inconclusive: 56.2 µM [inhibitor, partial curve, poor fit]",
COc1cc(NC(=O)c2cc(-c3ccc(C)cc3)on2)cc(OC)c1OC,inactive,
C/C(=N/OC(=O)c1ccc(C)cc1)c1ccc(N2C(=O)C3CCCCC3C2=O)cc1 (stereo not given),"inconclusive: 35.5 µM [inhibitor, full curve, poor fit]",
O=C(/C=C/c1ccc2ccccc2n1)c1cc(Cl)ccc1O,inactive,
CN(C)C(CNC(=O)c1cc(-c2ccco2)nc2ccccc12)c1ccccc1 (stereo not given),"inconclusive: 50.1 µM [inhibitor, partial curve, poor fit]",
CCC(C)[C@@H](N)C(=O)O (stereo not given in full),"inconclusive: 0.238 µM [inhibitor, full curve, poor fit]",
C=CCNC1=C(Cl)C(=O)N(c2ccccc2Cl)C1=O,inactive,
Cc1cn([C@@H](CCCCN)C(=O)NCCCCCCCCCCC(=O)N2CCNCC2)nn1,inactive,
Cc1ccc(OCC(=O)Sc2ccc(C)cc2)cc1,"inconclusive: 79.4 µM [inhibitor, partial curve, poor fit]",
O=C(NNC(=O)C1CCN(Cc2cccc(F)c2)CC1)c1cccc(Cl)c1,"inconclusive: 100 µM [inhibitor, single point]",
CC(C)Oc1ccc(N2C(=O)c3ccccc3C2=O)cc1,"inconclusive: 89.1 µM [inhibitor, single point]",
CCC1C(=NO)C(CC)C(c2ccccc2)NC1c1ccccc1 (stereo not given),inactive,
CCOc1ccccc1Nc1sc(C(=O)c2ccccc2)c(N)c1C(=O)NCCc1ccccc1,"inconclusive: 50.1 µM [inhibitor, partial curve, poor fit]",
Oc1c(Br)cc(Br)cc1/C=N/c1nccs1,"inconclusive: 44.7 µM [inhibitor, partial curve, poor fit]",
C=CCOc1c(Cl)cc(CNc2ccc(N(C)C)cc2)cc1OC,"inconclusive: 79.4 µM [inhibitor, partial curve, poor fit]",
CCCOc1ccccc1N/C(=N/c1nc(C)cc(C)n1)NC(=O)COc1ccc(OC)cc1,"inconclusive: 79.4 µM [inhibitor, partial curve, poor fit]",
S=c1nc[nH]c2c1[nH]c1ccccc12,"inconclusive: 100 µM [inhibitor, partial curve, poor fit]",
COc1ccccc1CNC(=O)CN1C(=O)NC(c2ccccc2)(c2ccc(C)c(C)c2)C1=O (stereo not given),"inconclusive: 79.4 µM [inhibitor, partial curve, poor fit]",

Compound,Potency,"activity change, negative = inhibition"
COc1ccc2nc(S(=O)Cc3ncc(C)c(OC)c3C)[nH]c2c1 (stereo not given),"inconclusive: 50.1 µM [inhibitor, partial curve, poor fit]",
COc1ccc(-c2c(C3C4C=CCCC4(C)C(=O)N3Cc3ccccc3)ccc3ccccc23)cc1 (stereo not given),inactive,
CC(NC(=O)c1cccnc1)C(c1cccs1)N1CCN(C)CC1 (stereo not given),inactive,
COCCCNC(=S)Nc1ccc(S(=O)(=O)Nc2cc(OC)nc(OC)n2)cc1,"inconclusive: 31.6 µM [inhibitor, partial curve, poor fit]",
COC(=O)CC1Oc2ccc(F)cc2-n2cc(-c3ccc(Cl)cc3)nc21 (stereo not given),inactive,
CN(C)CCCN(C(=O)CCOc1ccccc1)c1nc2c(F)cccc2s1,inactive,
CCOC(=O)c1sc(NC(=O)CSc2nc3c(cc2C#N)CCCCC3)c(C#N)c1C,,inactive: 5.8% [at 11.4 µM]
N#Cc1c(NC(=O)CCC(=O)O)sc2c1CCCCC2,"inconclusive: 100 µM [inhibitor, partial curve, poor fit]",
COc1cccc(CC2(CO)CCCN(C/C=C/c3ccccc3OC)C2)c1 (stereo not given),inactive,
N#CCCN(C(=S)NC(=O)c1cccs1)c1ccccc1F,"inconclusive: 79.4 µM [inhibitor, partial curve, poor fit]",
S=c1[nH]nc(-c2cc(-c3ccco3)[nH]n2)n1-c1cccc2ccccc12,"inconclusive: 70.8 µM [inhibitor, single point]",
O=C1NN(c2ccccc2)C(=O)/C1=C\c1cccc(OC(=O)c2cccs2)c1,"inconclusive: 44.7 µM [inhibitor, partial curve, poor fit]",
CCOc1ncccc1C(=O)OCc1ccc(Cl)cc1,inactive,
COc1ccc2c(c1OC)C(=O)N1c3ccccc3C(=O)N(Cc3ccco3)C21 (stereo not given),"inconclusive: 100 µM [inhibitor, single point]",
O=c1c2cc(N3CCOCC3)ccc2[nH]c(=S)n1Cc1ccco1,"inconclusive: 56.2 µM [inhibitor, partial curve, poor fit]",
COc1ccc(/C=C2\Sc3ccc(C(=O)N4CCOCC4)cc3N(C)C2=O)cc1,"inconclusive: 44.7 µM [inhibitor, partial curve, poor fit]",
O=c1c(C(c2ccc(O)cc2)c2c(O)nc3n(c2=O)CCS3)c(O)nc2n1CCS2,"inconclusive: 17.8 µM [inhibitor, full curve, poor fit]",
CCCc1cc(CN2CCOCC2)c(O)c(CN2CCOCC2)c1O,"inconclusive: 50.1 µM [inhibitor, partial curve, poor fit]",
CCCOc1ccc(C(=O)N2CCN(c3ccc(NC(=O)CC)cc3Cl)CC2)cc1,inactive,
CCN(CC)S(=O)(=O)c1cc(NC(=O)CNc2cccc(S(=O)(=O)N3CCOCC3)c2)ccc1C,"inconclusive: 100 µM [inhibitor, single point]",
CCOc1ccc(NC(=O)c2c(NCc3sccc3C)sc3c2CCCCC3)cc1,"inconclusive: 44.7 µM [inhibitor, partial curve, poor fit]",
Cc1c(NC2(C#N)CCCCC2)c(=O)n(-c2ccccc2)n1C,"inconclusive: 70.8 µM [inhibitor, partial curve, poor fit]",

Compound,Potency,"activity change, negative = inhibition"
Cn1c(N)c(C(=O)COC(=O)c2cc(-c3ccco3)nc3ccccc23)c(=O)n(C)c1=O,"inconclusive: 35.5 µM [inhibitor, partial curve, poor fit]",
Cc1ccc(OCC(=O)N/N=C/C=C/c2ccco2)cc1C,"inconclusive: 50.1 µM [inhibitor, partial curve, poor fit]",
Cc1cc2nc(C)n(CCCNC(=O)Nc3cccc4ccccc34)c2cc1C,"inconclusive: 70.8 µM [inhibitor, partial curve, poor fit]",
Cc1nn(-c2ccc(F)cc2)c(-n2cccc2)c1C(=O)NCCCN1CCN(c2cccc(Cl)c2)CC1,inactive,
O=C1S/C(=C/c2ccc(N3CCOCC3)o2)C(=O)N1Cc1c(F)cccc1Cl,"inconclusive: 89.1 µM [inhibitor, partial curve, poor fit]",
CCOc1ccc(S(=O)(=O)c2cn(Cc3ccccc3)c3ccc(OCC)cc3c2=O)cc1,inactive,
COCCn1nnnc1SCC(=O)c1ccc(F)cc1,"inconclusive: 25.1 µM [inhibitor, full curve, poor fit]",
O=C(NCc1ccccc1)C1CCN(S(=O)(=O)c2cccc3cccnc23)CC1,inactive,
CC(=O)c1ccc(N=C2C(=O)Nc3ccccc32)cc1,"inconclusive: 89.1 µM [inhibitor, partial curve, poor fit]",
CCOC(=O)c1cccc(NC(=O)c2cn(-c3cccc(OC)c3)c(=O)c3ccccc23)c1,"inconclusive: 50.1 µM [inhibitor, partial curve, poor fit]",
COC(=O)c1ccc(=O)c2nc3/c(=C/O)c(O)cc(=O)c3[nH]c12,"inconclusive: 35.5 µM [inhibitor, partial curve, poor fit]",
CC(=O)OCC1(O)CC23CCC4c5ccoc5CCC4(C)C2CCC1C3 (stereo not given),"inconclusive: 50.1 µM [inhibitor, partial curve, poor fit]",
O=C(NCC(c1cccs1)S(=O)(=O)c1cccs1)c1ccc(Cl)cc1 (stereo not given),inactive,
O=c1n(Cc2ccccc2)nc2n1-c1ccccc1SC2,inactive,
CCN(CC)CCNS(=O)(=O)c1ccc(OC)c(Br)c1,"inconclusive: 89.1 µM [inhibitor, single point]",
CC(C)(C)OC(=O)N1CCC(c2cc(=O)n3[nH]cc(C(=O)Nc4ccc(F)c(Cl)c4)c3n2)CC1,inactive,
O=[N+]([O-])c1cccc(NC(=S)Nc2nc(-c3ccccc3Cl)cs2)c1,"inconclusive: 56.2 µM [inhibitor, partial curve, poor fit]",
COc1ccc(CNC(=O)c2sc3nc4c(c(C(F)(F)F)c3c2N)CCC4)cc1OC,"inconclusive: 17.8 µM [inhibitor, full curve, poor fit]",
COc1ccc(C2=CSC(/N=C/c3ccc(F)cc3)=NN2)cc1,"inconclusive: 35.5 µM [inhibitor, partial curve, poor fit]",
Cc1ccc(Sc2ccc(N3CCC(C(=O)Nc4ccc(C)c(F)c4)CC3)nn2)cc1,inactive,
C[N+]1(CCCCCCC(=O)/C=N/O)CCCCCC1,"inconclusive: 89.1 µM [inhibitor, single point]",
